The values that follow come from article PMC4336329 (PLoS ONE, 2015).

Hit rate of the full screen: of about 310,000 compounds, about 2,200 (0.71%) showed an effect of 50% or more. The effect is printed as a negative number. The list shows a part of the results.

In this experiment the target is human ether-à-go-go-related gene (hERG) potassium channel (human, UniProt Q12809). Nature of the experiment: primary screen, population patch clamp on CHO cells stably expressing hERG.
Sequence of human ether-à-go-go-related gene (hERG) potassium channel (Q12809 whole entry, looked up): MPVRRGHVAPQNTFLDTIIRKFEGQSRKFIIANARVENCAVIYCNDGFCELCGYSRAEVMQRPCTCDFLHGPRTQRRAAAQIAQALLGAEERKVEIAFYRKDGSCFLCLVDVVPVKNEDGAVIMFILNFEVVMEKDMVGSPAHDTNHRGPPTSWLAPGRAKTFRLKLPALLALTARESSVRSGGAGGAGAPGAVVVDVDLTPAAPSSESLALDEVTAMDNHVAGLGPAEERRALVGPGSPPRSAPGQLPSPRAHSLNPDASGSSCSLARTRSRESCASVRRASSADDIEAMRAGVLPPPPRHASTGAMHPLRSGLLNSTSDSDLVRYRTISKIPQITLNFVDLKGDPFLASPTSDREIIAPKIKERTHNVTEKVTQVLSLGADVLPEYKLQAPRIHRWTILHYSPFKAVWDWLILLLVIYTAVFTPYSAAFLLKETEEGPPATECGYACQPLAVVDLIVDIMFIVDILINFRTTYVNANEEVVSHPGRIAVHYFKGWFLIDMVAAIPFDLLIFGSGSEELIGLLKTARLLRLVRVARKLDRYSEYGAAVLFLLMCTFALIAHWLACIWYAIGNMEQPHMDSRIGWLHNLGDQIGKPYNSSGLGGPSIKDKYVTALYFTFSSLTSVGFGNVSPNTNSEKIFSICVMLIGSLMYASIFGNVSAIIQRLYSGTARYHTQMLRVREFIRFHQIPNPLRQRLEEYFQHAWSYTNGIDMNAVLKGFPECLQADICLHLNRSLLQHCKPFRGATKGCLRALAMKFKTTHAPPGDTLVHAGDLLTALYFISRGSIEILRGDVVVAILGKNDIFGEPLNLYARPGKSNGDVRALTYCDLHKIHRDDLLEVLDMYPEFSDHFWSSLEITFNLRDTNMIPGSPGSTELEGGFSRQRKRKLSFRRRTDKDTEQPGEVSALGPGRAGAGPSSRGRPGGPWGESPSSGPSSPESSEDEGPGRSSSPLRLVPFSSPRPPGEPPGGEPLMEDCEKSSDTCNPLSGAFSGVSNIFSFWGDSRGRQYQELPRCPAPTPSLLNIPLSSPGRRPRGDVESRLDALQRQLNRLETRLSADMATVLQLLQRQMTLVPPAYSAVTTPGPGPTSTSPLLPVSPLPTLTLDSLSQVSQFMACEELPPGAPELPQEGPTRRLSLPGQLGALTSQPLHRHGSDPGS
`COc1cccc(N2CCN(C(=O)CC(C)(C)CC3=NS(=O)(=O)c4ccccc4N3)CC2)c1`: the “hERG current change (%, negative = inhibition) at 1uM” value is given as 9.19%.
On to `Cc1ccc2ccccc2c1COC(=O)c1nonc1N`, for which the “hERG current change (%, negative = inhibition) at 1uM” value amounted to 4.04%.
Turning to `N#CCC(=O)N/N=C/c1cc([N+](=O)[O-])ccc1N1CCOCC1`, the “hERG current change (%, negative = inhibition) at 1uM” value is given as -2.66%.
Take `COc1cc(/C=C2\S/C(=N/S(=O)(=O)Cc3ccccc3)NC2=O)c([N+](=O)[O-])cc1OC`: the “hERG current change (%, negative = inhibition) at 1uM” value worked out at 10.4%.
Regarding `CNC(=O)C(C)NS(=O)(=O)c1ccc(F)cc1` (stereo not shown), the “hERG current change (%, negative = inhibition) at 1uM” value came out at 10.5%.
In the case of `CN(Cc1ccccc1F)C(=O)c1ccc2c(=O)n3c(nc2c1)CCC3`, the “hERG current change (%, negative = inhibition) at 1uM” value came to 14.4%.
Regarding `O=C(NC1CC1)c1ccc(CS(=O)c2ccc(Br)cc2)o1` (stereo not shown), the “hERG current change (%, negative = inhibition) at 1uM” value is recorded as 13.8%.
For `CCSc1ccccc1C(=O)N=C1NC(=O)CC2C(=O)NCCN12` (stereo not shown) the value was 9.8%.
Consider `CC(=O)N1CCN(S(=O)(=O)c2cccc(C(=O)OCC(=O)N3CC(=O)Nc4ccccc43)c2)CC1`, for which the “hERG current change (%, negative = inhibition) at 1uM” value worked out at 19%.
For `Clc1cccc(Cl)c1-c1noc(CN2CCOCC2)n1` the value was 12.6%; for `Fc1ccccc1CSc1nc2ccccc2[nH]1`, 0.961%; for `Cc1nn2cc(-c3ccccc3)nc2[nH]c1=O`, 24.2%.
For the compound `COc1ccc(C2CC(=O)C3=C(C2)Nc2ccccc2N(C(=O)C2CC2)C3c2cccnc2)cc1OC` (stereo not shown), the “hERG current change (%, negative = inhibition) at 1uM” value was 6.25%.
`CCn1cc(CN2CCCC(C(=O)Nc3ccc(-c4nc5ccccc5[nH]4)cc3)C2)c(C)n1` (stereo not shown): the “hERG current change (%, negative = inhibition) at 1uM” value was 0.0718%.
`CCOC(=O)N1CCN(Cc2nc3ccc([N+](=O)[O-])cc3c(=O)n2-c2ccc(OC)cc2OC)CC1`: the “hERG current change (%, negative = inhibition) at 1uM” value is on record as -0.993%.
Next, `CS(=O)(=O)N1CCN(c2ccccc2NC(=O)c2cccnc2)CC1`: -3.63%.
With `COC(=O)CCC(=O)NC(=S)Nc1c(C)cccc1C`, the “hERG current change (%, negative = inhibition) at 1uM” value is listed as 6.22%.
For the compound `Cc1ccc(CN2C(=O)C(C)(C)Oc3ccc(C(=O)N4CCCCC4)cc32)cc1`, the “hERG current change (%, negative = inhibition) at 1uM” value amounted to 7.02%.
`COc1ccc(CSc2nc3nc(C)cc(C)n3n2)cc1F`: the “hERG current change (%, negative = inhibition) at 1uM” value was found to be 4.03%.
Regarding `CC1CCCCC1NC(=O)CSc1nnc(CNC(=O)c2ccccc2)n1C` (stereo not shown), the “hERG current change (%, negative = inhibition) at 1uM” value amounted to 10.8%.
With `O=C(NC(=S)Nc1ccc(S(=O)(=O)N2CCCC2)cc1)C1CCC1`, the “hERG current change (%, negative = inhibition) at 1uM” value is 11.8%.
Turning to `Cc1ccc(C(=O)NCC(=O)NCC(=O)OCC(=O)c2cccs2)cc1`, the “hERG current change (%, negative = inhibition) at 1uM” value is 7.78%.
With `CN1CCCCCC1=Nc1ccc([N+](=O)[O-])cc1.Cl`, the “hERG current change (%, negative = inhibition) at 1uM” value was found to be 4.34%.
Next, `Cc1ccccc1SCC(=O)N1CCN(c2ccc(C(F)(F)F)cn2)CC1`: -13.3%; `COCCCNCCCCOc1ccc(C)cc1[N+](=O)[O-].O=C(O)C(=O)O`: -4.56%.
As for `CCCCOC(=O)C(C#N)c1nc2ccccc2nc1N1CCN(Cc2ccc3c(c2)OCO3)CC1` (stereo not shown), the “hERG current change (%, negative = inhibition) at 1uM” value is 12.4%.
Consider `Br.Cc1csc(=Nc2ccccc2)n1C`, for which the “hERG current change (%, negative = inhibition) at 1uM” value is reported as 10.1%.
Regarding `CS(=O)(=O)c1ccccc1C(=O)N(CCc1ccccc1)Cc1ccccc1`, the “hERG current change (%, negative = inhibition) at 1uM” value is listed as 9.2%.
In the case of `O=C(N1CCOCC1)N1CCN(S(=O)(=O)c2ccc(Cl)cc2)C1`, the “hERG current change (%, negative = inhibition) at 1uM” value amounted to 18.2%.
`CN(C)c1ccc(/C=N/NC(=O)CNC(=O)c2ccncc2)cc1`: the “hERG current change (%, negative = inhibition) at 1uM” value amounted to 12.7%.
Turning to `O=C(O)C1CCN1C1CCCCC1` (stereo not shown), the “hERG current change (%, negative = inhibition) at 1uM” value is on record as 11.3%.
As for `O=C(O)CC(C(=O)Nc1ccc(Cl)c(Cl)c1)C1CCCO1` (stereo not shown), the “hERG current change (%, negative = inhibition) at 1uM” value was 4.45%.
In the case of `CCCNC(=O)c1nc(C)c(C)nc1C(=O)Nc1cccc(Cl)c1`, the “hERG current change (%, negative = inhibition) at 1uM” value was 4.07%.
For `O=Cc1ccc(OC(=O)c2cc(Cl)nc3ccccc23)cc1` the value was 13.5%; for `O=C(COC(=O)c1ccccc1O)Nc1cccc2ccccc12`, 2.17%.
Next, `CC(C)(Cc1ccc(O)cc1)NC(=O)SCc1ccccc1`: 6.63%; `CC(=O)c1ccc(N/C=C/C(=O)c2ccc(Br)cc2)cc1`: 14.3%.
Consider `O=S(=O)(O)c1nc2ccccc2n1Cc1ccc(Cl)cc1Cl`, for which the “hERG current change (%, negative = inhibition) at 1uM” value is given as 7.15%.
As to `O=C(OC1CCOC1=O)C1CCN(S(=O)(=O)c2ccccc2)CC1` (stereo not shown), the “hERG current change (%, negative = inhibition) at 1uM” value is recorded as 8.34%.
Turning to `CN1C[C@@H]2C[C@@H](c3ccc(C#CC(C)(C)O)s3)N3CCC[C@@]23C1=O`, the “hERG current change (%, negative = inhibition) at 1uM” value is recorded as 13.8%.
For `Cc1cccc(NC(=O)CCNC(=O)c2ccco2)c1` the value was 14.5%.
Turning to `COc1ccc2c(c1)sc(N)[n+]2Cc1cc(C)cc2cccnc12.[Br-]`, the “hERG current change (%, negative = inhibition) at 1uM” value was -26.5%.
Next, `CCOc1ccc(NC(=O)N2CCC(c3nc4ccccc4[nH]3)CC2)cc1`: -5.11%; `O=C(CN1CCN(S(=O)(=O)c2ccccc2[N+](=O)[O-])CC1)NC(=O)NCc1ccco1`: 17.9%; `CCOC(=O)CSc1nc(C(C)C)nc2ccccc12`: 5.05%.
Next, `CCCC(=O)Nc1nnc(/C=C/c2ccccc2)s1`: 10.1%; `CCOC(=O)c1c(NC(C)=O)no[n+]1[O-]`: 4.59%; `Cc1ccc2nsnc2c1S(=O)(=O)N1CCCC1C(=O)O` (stereo not shown): 18.9%.
Next, `Cc1cc(Nc2ccc(C)c(F)c2)n2ncnc2n1`: 23.4%; `CCN(CC(=O)Nc1cccc(S(N)(=O)=O)c1)Cc1nc2ccccc2c(=O)[nH]1`: 3.68%.
As for `COc1cc(C(=O)Nc2ccc(NC(=O)c3ccccc3)nc2)cc(OC)c1OC`, the “hERG current change (%, negative = inhibition) at 1uM” value is 13%.
Turning to `O=C(Nc1ccc2c(c1)OCO2)C1CC(c2c(F)cccc2Cl)=NO1` (stereo not shown), the “hERG current change (%, negative = inhibition) at 1uM” value is recorded as 11.7%.
As for `O=C1CC(c2ccccc2)CC(O)=C1C=NCCN1CCN(C(=S)Nc2cccc(Cl)c2)CC1` (stereo not shown), the “hERG current change (%, negative = inhibition) at 1uM” value was 2.31%.
Turning to `Cc1ccc(S(=O)(=O)NCC(C)n2cncn2)cc1C` (stereo not shown), the “hERG current change (%, negative = inhibition) at 1uM” value was found to be 16.8%.
On to `C[C@H]1C=C(C(=O)N2CCN(Cc3ccc4c(c3)OCO4)CC2)O[C@@H](OCc2ccc(CO)cc2)C1`, for which the “hERG current change (%, negative = inhibition) at 1uM” value is recorded as -24.4%.
Consider `CC1CC(=O)Nc2ccccc2N1S(=O)(=O)c1cccc(Cl)c1` (stereo not shown), for which the “hERG current change (%, negative = inhibition) at 1uM” value came out at 7.78%.
With `N#Cc1nc(COc2cccc(Cl)c2)oc1NCc1ccncc1`, the “hERG current change (%, negative = inhibition) at 1uM” value is -53.8%.
As for `CCOC(=O)N1CCC(N2C(=O)c3ccc(C(=O)NCc4ccc(F)cc4)cc3C2=O)CC1`, the “hERG current change (%, negative = inhibition) at 1uM” value is reported as 1.7%.
In the case of `Cc1nc2scc(C)n2c(=O)c1S(=O)(=O)N1CCN(c2ccc([N+](=O)[O-])cc2)CC1`, the “hERG current change (%, negative = inhibition) at 1uM” value is recorded as -4.07%.
Consider `COC(=O)c1ccc(NC(=O)c2ccc(OC(C)=O)c(OC)c2)cc1`, for which the “hERG current change (%, negative = inhibition) at 1uM” value is recorded as 10.7%.
As to `CCOC(=O)C1=C(C)NC(=O)NC1c1cn(-c2ccccc2)nc1-c1cccs1` (stereo not shown), the “hERG current change (%, negative = inhibition) at 1uM” value came out at 11.2%.
`O=c1[nH]c(=O)n(-c2cccc3ccccc23)c(O)c1C=NCc1ccc2c(c1)OCO2`: the “hERG current change (%, negative = inhibition) at 1uM” value was 2.06%.
Next, `Cc1onc(-c2ccccc2)c1C(=O)OCC(=O)NCc1ccc(F)cc1`: 10.4%.
`COc1cccc(/C=C2/SC(=O)N(C)C2=O)c1OCc1ccc(C(=O)O)cc1`: the “hERG current change (%, negative = inhibition) at 1uM” value is 24.2%.
Regarding `COc1cc2c(cc1OC)C(Cc1ccc(O)cc1)NCC2` (stereo not shown), the “hERG current change (%, negative = inhibition) at 1uM” value turned out to be 4.37%.
On to `COc1cccc(OCC(O)CN2CCc3ccccc3C2)c1.Cl` (stereo not shown), for which the “hERG current change (%, negative = inhibition) at 1uM” value is recorded as -57.6%.
As for `CCOC(=O)N1CCN(CCC(=O)Nc2ccc(Br)cc2)CC1`, the “hERG current change (%, negative = inhibition) at 1uM” value turned out to be 1.37%.
Take `O=[N+]([O-])c1cccc(O)c1`: the “hERG current change (%, negative = inhibition) at 1uM” value worked out at 14.9%.
`CC(=O)Nc1ccc(NC(=O)C(C)OC(=O)CSc2ccc(Br)cc2C)cc1` (stereo not shown): the “hERG current change (%, negative = inhibition) at 1uM” value is on record as 7.83%.
For `O=C(CCCn1cnc2ccccc2c1=O)Nc1ccccc1F` the value was 5.5%; for `CCCCn1nc(C(=O)N[C@@H](CCSC)c2nc3ccccc3[nH]2)c2ccccc2c1=O`, 3.43%; for `Cc1c(N=C/C=C2/N(C)c3ccccc3C2(C)C)c(=O)n(-c2ccccc2)n1C`, -5.46%.
As to `Cc1ccc(C(=O)NCC(c2ccco2)N2CCc3ccccc32)cc1C` (stereo not shown), the “hERG current change (%, negative = inhibition) at 1uM” value was -23.3%.
Regarding `COc1ccc(C[C@H]2CN3C(=NC[C@@H]3C(C)C)N2CCNC(=O)CCC2CCCCC2)cc1`, the “hERG current change (%, negative = inhibition) at 1uM” value was -86%.
For the compound `CN(C)CCCNc1nc(-c2ccc(Cl)cc2)nc2ccccc12`, the “hERG current change (%, negative = inhibition) at 1uM” value is on record as 6.73%.
Take `CC(CN1CCCCC1)OC(=O)c1ccc(Cl)cc1Cl.Cl` (stereo not shown): the “hERG current change (%, negative = inhibition) at 1uM” value is -0.0635%.
In the case of `O=C(CN1CCCC1)Nc1ccccc1Sc1ccc(Cl)cc1`, the “hERG current change (%, negative = inhibition) at 1uM” value is recorded as -0.77%.
In the case of `O=C(Nc1cc(C(F)(F)F)ccc1N1CCOCC1)c1c(F)c(F)c(F)c(F)c1F`, the “hERG current change (%, negative = inhibition) at 1uM” value stood at 4.97%.
Turning to `O=C(NCc1cccc(Cl)c1)c1cnn2c1NC(c1ccco1)CC2C(F)(F)F` (stereo not shown), the “hERG current change (%, negative = inhibition) at 1uM” value was -14.8%.
Regarding `CCN(CC)S(=O)(=O)c1ccc(NC(=O)COC(=O)c2cc(S(=O)(=O)Nc3ccc(OC)cc3)ccc2O)cc1`, the “hERG current change (%, negative = inhibition) at 1uM” value was 4.76%.
In the case of `CC(=O)N1CCN(CC(=O)Nc2sccc2C#N)CC1`, the “hERG current change (%, negative = inhibition) at 1uM” value was determined as 14.9%.
Take `Fc1cccc(CSc2nc3ccncc3[nH]2)c1`: the “hERG current change (%, negative = inhibition) at 1uM” value was 8.85%.
For the compound `Cc1cnc([N+](=O)[O-])n1CCOC(=O)NC(=O)c1ccccc1`, the “hERG current change (%, negative = inhibition) at 1uM” value is 5.34%.
Regarding `COc1cc(CCC(=O)OCC(=O)Nc2ccc3c(c2)OCO3)cc(OC)c1OC`, the “hERG current change (%, negative = inhibition) at 1uM” value is 14.3%.
Next, `CCn1c(SCC(N)=O)nc2ccccc2c1=O`: 12.5%; `CCOC(=O)C1CCN(C(=O)C2(NC(=O)Nc3ccc(F)cc3F)CCCCC2)CC1`: 4.24%; `Cn1nc(-c2ccccc2)c(-c2nc(-c3cccc(C(F)(F)F)c3)no2)c1Cl`: 13.2%.
As to `COc1cccc(CNCc2ccc3c(c2)OCO3)c1.O=C(O)C(=O)O`, the “hERG current change (%, negative = inhibition) at 1uM” value is recorded as 11.6%.
